Measured values: patent publication US20230192795A1 (Hoffmann-La Roche, published 2023)

T1: IL-7Rα/IL-2Rγ on human T cells (human, UniProt P16871 21-459; P31785 23-369)
T1 sequence (looked up) 1: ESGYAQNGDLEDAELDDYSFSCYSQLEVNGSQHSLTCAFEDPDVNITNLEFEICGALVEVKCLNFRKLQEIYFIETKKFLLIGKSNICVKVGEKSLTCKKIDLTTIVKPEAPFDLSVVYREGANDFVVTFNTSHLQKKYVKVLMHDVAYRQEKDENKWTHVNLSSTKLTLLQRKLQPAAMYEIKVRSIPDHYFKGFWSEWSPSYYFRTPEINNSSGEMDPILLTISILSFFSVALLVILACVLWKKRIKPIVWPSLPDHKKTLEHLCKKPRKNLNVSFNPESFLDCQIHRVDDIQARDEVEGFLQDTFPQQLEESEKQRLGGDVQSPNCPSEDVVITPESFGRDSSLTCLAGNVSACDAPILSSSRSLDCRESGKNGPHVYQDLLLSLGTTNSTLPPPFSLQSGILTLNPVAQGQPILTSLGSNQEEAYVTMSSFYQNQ
T1 sequence (looked up) 2: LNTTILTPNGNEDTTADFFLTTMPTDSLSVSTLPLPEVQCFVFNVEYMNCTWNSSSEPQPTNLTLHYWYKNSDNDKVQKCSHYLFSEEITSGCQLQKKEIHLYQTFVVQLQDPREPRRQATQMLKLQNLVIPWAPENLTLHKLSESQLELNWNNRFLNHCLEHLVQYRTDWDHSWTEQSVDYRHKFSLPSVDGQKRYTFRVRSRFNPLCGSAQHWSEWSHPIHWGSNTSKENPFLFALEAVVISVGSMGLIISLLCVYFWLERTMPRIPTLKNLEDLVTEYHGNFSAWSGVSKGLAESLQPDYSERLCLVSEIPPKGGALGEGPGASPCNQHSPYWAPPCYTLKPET

B1: PD1-IL7wt (other)
light: DIVMTQSPDSLAVSLGERATINCKASESVDTSDNSFIHWYQQKPGQSPKLLIYRSSTLESGVPDRFSGSGSGTDFTLTISSLQAEDVAVYYCQQNYDVPWTFGQGTKVEIKRTVAAPSVFIFPPSDEQLKSGTASVVCLLNNFYPREAKVQWKVDNALQSGNSQESVTEQDSKDSTYSLSSTLTLSKADYEKHKVYACEVTHQGLSSPVTKSFNRGEC
heavy 1: EVQLLESGGGLVQPGGSLRLSCAASGFSFSSYTMSWVRQAPGKGLEWVATISGGGRDIYYPDSVKGRFTISRDNSKNTLYLQMNSLRAEDTAVYYCVLLTGRVYFALDSWGQGTLVTVSSASTKGPSVFPLAPSSKSTSGGTAALGCLVKDYFPEPVTVSWNSGALTSGVHTFPAVLQSSGLYSLSSVVTVPSSSLGTQTYICNVNHKPSNTKVDKKVEPKSCDKTHTCPPCPAPEAAGGPSVFLFPPKPKDTLMISRTPEVTCVVVDVSHEDPEVKFNWYVDGVEVHNAKTKPREEQYNSTYRVVSVLTVLHQDWLNGKEYKCKVSNKALGAPIEKTISKAKGQPREPQVCTLPPSRDELTKNQVSLSCAVKGFYPSDIAVEWESNGQPENNYKTTPPVLDSDGSFFLVSKLTVDKSRWQQGNVFSCSVMHEALHNHYTQKSLSLSPGK
heavy 2: EVQLLESGGGLVQPGGSLRLSCAASGFSFSSYTMSWVRQAPGKGLEWVATISGGGRDIYYPDSVKGRFTISRDNSKNTLYLQMNSLRAEDTAVYYCVLLTGRVYFALDSWGQGTLVTVSSASTKGPSVFPLAPSSKSTSGGTAALGCLVKDYFPEPVTVSWNSGALTSGVHTFPAVLQSSGLYSLSSVVTVPSSSLGTQTYICNVNHKPSNTKVDKKV[human IgG1 Fc with changes left out]GGGGSGGGGSGGGGSDCDIEGKDGKQYESVLMVSIDQLLDSMKEIGSNCLNNEFNFFKRHICDANKEGMFLFRAARKLRQFLKMNSTGDFDLHLLKVSEGTTILLNCTGQVKGRKPAALGEAQPTKSLEENKSLKEQKKLNDLCFLKRLLQEIKTCWNKILMGTKEH
notes: also called PDI-IL7wt; PD1-ILwt
B2: PD1-IL7-VAR21 (G85E) (other)
light: B1 light
heavy 1: B1 heavy 1
heavy 2: EVQLLESGGGLVQPGGSLRLSCAASGFSFSSYTMSWVRQAPGKGLEWVATISGGGRDIYYPDSVKGRFTISRDNSKNTLYLQMNSLRAEDTAVYYCVLLTGRVYFALDSWGQGTLVTVSSASTKGPSVFPLAPSSKSTSGGTAALGCLVKDYFPEPVTVSWNSGALTSGVHTFPAVLQSSGLYSLSSVVTVPSSSLGTQTYICNVNHKPSNTKVDKKV[human IgG1 Fc with changes left out]GGGGSGGGGSGGGGSDCDIEGKDGKQYESVLMVSIDQLLDSMKEIGSNCLNNEFNFFKRHICDANKEGMFLFRAARKLRQFLKMNSTGDFDLHLLKVSEETTILLNCTGQVKGRKPAALGEAQPTKSLEENKSLKEQKKLNDLCFLKRLLQEIKTCWNKILMGTKEH
notes: Format as m1; IL-7 with G85E; also called PD1-IL7 -G85E (Var21); PD1-IL7v variant 21
B3: PD1-IL7-VAR18 (K81E) (other)
light: B1 light
heavy 1: B1 heavy 1
heavy 2: EVQLLESGGGLVQPGGSLRLSCAASGFSFSSYTMSWVRQAPGKGLEWVATISGGGRDIYYPDSVKGRFTISRDNSKNTLYLQMNSLRAEDTAVYYCVLLTGRVYFALDSWGQGTLVTVSSASTKGPSVFPLAPSSKSTSGGTAALGCLVKDYFPEPVTVSWNSGALTSGVHTFPAVLQSSGLYSLSSVVTVPSSSLGTQTYICNVNHKPSNTKVDKKV[human IgG1 Fc with changes left out]GGGGSGGGGSGGGGSDCDIEGKDGKQYESVLMVSIDQLLDSMKEIGSNCLNNEFNFFKRHICDANKEGMFLFRAARKLRQFLKMNSTGDFDLHLLEVSEGTTILLNCTGQVKGRKPAALGEAQPTKSLEENKSLKEQKKLNDLCFLKRLLQEIKTCWNKILMGTKEH
notes: Format as m1; IL-7 with K81E; also called PD1-IL7 -K81E (Var18); PD1-IL7v variant 18

target: T1, IL-7Rα/IL-2Rγ on human T cells; experiment: cell-based or functional assay

EC50[active] / EC50 [active PD1-IL7wt] [fold]	EC50[fresh]/EC50 [fresh PD1-IL7wt] [fold]	STAT5-P AUC [active]	STAT5-P AUC [fresh]	Binder
1	1	200	377	B1
17.7	130	104	185	B2
12	62.9	119	214	B3

target: T2, Human IL7Ra-IL2Rγ-Fc heterodimer (human, biotin on the avi tag); experiment: SPR, captured via anti-P329G, receptor-Fc 2.34-300 nM, 1:1 fit
T2 construct: Extracellular domains of IL-7Ralpha and IL-2Rgamma fused to Fc knob and Fc hole; also called hu IL7Ra-IL2Rγ-Fc avi biotin; human IL7Ra-IL2Rg-Fc biotin
Experimental: (§1) Surface Plasmon Resonance (SPR) experiments were performed on a Biacore 8 K with HBS-EP + 1 mg/ml BSA as running buffer. Anti-P329G Fc specific antibody (Roche internal) was directly immobilized by amine coupling on a C1 chip (Cytiva). The PD1-IL7 constructs were captured for 140 s at 5 nM. […] The dissociation phase was monitored for 800 s and triggered by switching from the sample solution to running buffer. The chip surface was regenerated after every cycle using two injections of 10 mM glycine pH 2 for 60 sec. Bulk refractive index differences were corrected for by subtracting the response obtained on the reference flow cell (containing immobilized anti P329G Fc specific IgG only). The affinity constants were derived from the kinetic rate constants by fitting to a 1:1 Langmuir binding using the Biacore evaluation software (Cytiva).
(§2) Four IL7 single variants and two IL7 double variants were compared to IL7 wild-type for binding to human IL7 receptor (Table 17). The affinity of the IL7 variants to the IL7 receptor was determined using the recombinant heterodimer of the extracellular domains of the IL7 receptor alpha chain and the common IL2 receptor gamma chain.

Kd [nM]	koff [s⁻¹]	kon [M⁻¹ s⁻¹]	Binder
0.768	0.000313	444000	B1
11.5	0.00313	273000	B2
2.26	0.000719	320000	B3

target: T2, Human IL7Ra-IL2Rγ-Fc heterodimer; experiment: SPR (Example 2.4), captured via anti-P329G, receptor-Fc 2.34-300 nM, 1:1 fit

Kd [nM]	koff [s⁻¹]	kon [M⁻¹ s⁻¹]	Binder
0.567	0.000218	389000	B1
5.36	0.00267	504000	B2
1.44	0.000563	392000	B3

target: T3, cynomolgus IL7Ra-IL2Rg-Fc biotin (cynomolgus, UniProt P13232;Q29615); experiment: SPR, captured via anti-P329G, receptor-Fc 2.34-300 nM, 1:1 fit
T3 construct: extracellular domain; Heterodimer of the ECD of IL7Ra and IL2Rg chains fused to an Fc; also called cynomolgus IL7Ralpha-IL2Rgamma-Fc heterodimer; cynomolgus IL7 receptor
Experimental: as §1
as §2, with “cynomolgus” for “human”, “18).” for “17).”

Kd [nM]	koff [s⁻¹]	kon [M⁻¹ s⁻¹]	Binder
1.03	0.000355	345000	B1
15.6	0.00431	277000	B2
3.93	0.000951	242000	B3
